Each structure is given as a SMILES string. The campaign covered roughly 310,000 compounds. About 14,000 (4.5%) showed an effect of 50% or more. The effect is printed as a negative number. The list shows a part of the results.
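Further: peak tail current of the secondary pulse compared with the same well before compound.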

human ether-à-go-go-related gene (hERG) potassium channel, sequence (Q12809 whole entry, looked up): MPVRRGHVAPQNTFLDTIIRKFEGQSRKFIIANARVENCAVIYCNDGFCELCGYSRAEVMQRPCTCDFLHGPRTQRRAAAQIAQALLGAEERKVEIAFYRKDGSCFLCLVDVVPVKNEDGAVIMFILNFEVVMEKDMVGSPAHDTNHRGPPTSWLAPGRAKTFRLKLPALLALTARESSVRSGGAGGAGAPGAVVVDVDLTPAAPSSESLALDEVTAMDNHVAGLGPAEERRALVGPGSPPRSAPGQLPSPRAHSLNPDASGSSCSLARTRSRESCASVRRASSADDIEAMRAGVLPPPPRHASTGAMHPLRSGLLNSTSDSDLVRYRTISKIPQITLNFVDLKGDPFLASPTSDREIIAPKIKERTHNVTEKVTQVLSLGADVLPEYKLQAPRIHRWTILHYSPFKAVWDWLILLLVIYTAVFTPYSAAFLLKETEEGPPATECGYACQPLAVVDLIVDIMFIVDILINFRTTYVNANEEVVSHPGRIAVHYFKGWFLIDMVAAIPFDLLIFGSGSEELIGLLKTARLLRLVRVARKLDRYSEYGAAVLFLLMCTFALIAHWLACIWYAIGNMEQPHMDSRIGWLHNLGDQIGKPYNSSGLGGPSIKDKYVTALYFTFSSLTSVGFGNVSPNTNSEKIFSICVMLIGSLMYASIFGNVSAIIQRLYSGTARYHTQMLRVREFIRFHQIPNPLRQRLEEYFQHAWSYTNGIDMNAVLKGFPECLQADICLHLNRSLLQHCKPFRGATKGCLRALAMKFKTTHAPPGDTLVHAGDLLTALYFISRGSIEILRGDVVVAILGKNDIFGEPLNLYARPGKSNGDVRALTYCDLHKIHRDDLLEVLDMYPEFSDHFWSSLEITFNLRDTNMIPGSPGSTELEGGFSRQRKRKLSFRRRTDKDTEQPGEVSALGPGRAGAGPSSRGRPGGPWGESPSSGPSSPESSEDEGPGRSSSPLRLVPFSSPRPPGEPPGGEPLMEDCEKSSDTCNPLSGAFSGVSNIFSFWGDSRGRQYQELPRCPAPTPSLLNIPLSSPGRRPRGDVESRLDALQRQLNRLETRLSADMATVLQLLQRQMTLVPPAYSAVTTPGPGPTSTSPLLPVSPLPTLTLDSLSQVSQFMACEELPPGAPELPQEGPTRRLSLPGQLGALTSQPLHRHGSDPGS

This assay has as its target human ether-à-go-go-related gene (hERG) potassium channel (human, UniProt Q12809). The assay can be described thus: primary screen, population patch clamp on CHO cells stably expressing hERG.
For `NC(=O)C1(N2CCCCC2)CCN(C(=O)c2ccccc2)CC1`, the “hERG current change (%, negative = inhibition) at 10uM” value was -11.8%.
Then `COc1ccc(CCN2C(=O)CSC2c2cccc([N+](=O)[O-])c2)cc1OC` (stereo not shown), with -3.39%; and `COc1ccc(/C=C(\NC(=O)c2ccco2)C(=O)N2CCOCC2)cc1`, with 0.365%.
Then `CCn1c(SCC(=O)NCc2cccs2)nnc1-c1cccs1`, with -20.9%.
Then `CC(C)(C)C(=O)NC(=S)Nc1ccc(C(F)(F)F)cc1`, with 22.1%; and `COC(=O)c1c(NC(=O)C(C)(C)C)sc2c1CCN(Cc1ccccc1)C2.Cl`, with -34.7%; and `O=C(CSc1nncn1-c1ccccc1)Nc1cc(F)ccc1F`, with 25.6%.
Consider `CC(=O)c1cccc(Nc2cc(C)nc3c(C)cccc23)c1.Cl`, for which the “hERG current change (%, negative = inhibition) at 10uM” value was -72.8%.
Then `Cc1sc2nc(CN3CCCC3)nc(N3CCN(S(=O)(=O)c4cccs4)CC3)c2c1C`, with -70.7%; and `COc1ccc2cc(CN(CCO)C(=O)c3ccccc3F)c(=O)[nH]c2c1`, with 16.2%.
Then `C=CCn1c(NCc2ccccc2O)nc2ccccc21`, with 13.8%; and `CCC(NS(=O)(=O)c1ccc2c(c1)Cc1cc(S(=O)(=O)NC(CC)C(=O)O)ccc1-2)C(=O)O` (stereo not shown), with 20.5%; and `CCCc1ccc(-c2cc(N)n[nH]2)cc1`, with 18.9%.
On to `COc1ccc([C@H]2CC(=O)C=C(c3c(C)cc(C)cc3C)C2)cc1`, for which the “hERG current change (%, negative = inhibition) at 10uM” value came out at 8.65%.
Then `Cl.Oc1ccccc1CNCc1ccccc1`, with -4.43%; and `COc1cccc(-c2nn(-c3ccc(C)cc3)cc2C(=O)N(C)CC(=O)Nc2cccc(F)c2)c1`, with 0.34%; and `Cl.OCCCN1CCN(CCCOc2ccccc2-c2ccccc2)CC1`, with -69.6%.
Then `COc1ccc(-c2nnc(NC(=O)c3ccccc3C)o2)cc1`, with 5.87%; and `COc1ccc([N+](=O)[O-])cc1NC(=O)c1ccc(N2C(=O)CCC2=O)cc1`, with 7.55%; and `CC(=O)Nc1ccccc1OCc1cnc(Cl)s1`, with 15.1%.
Take `O=C(Cc1ccc(Cl)cc1)Nc1ccccc1N1CCN(C(=O)c2ccccc2)CC1`: the “hERG current change (%, negative = inhibition) at 10uM” value was -72.1%.
Consider `O=C(CN(Cc1ccccc1Cl)C(=O)c1csnn1)NC1CCCC1`, for which the “hERG current change (%, negative = inhibition) at 10uM” value is listed as -13.6%.
The same measure for `Cc1cc(NC(=S)N(CCCN2CCN(C)CC2)Cc2ccco2)ccc1Cl`: -68.2%; for `Cc1ccc(CNC(=O)CN(Cc2ccccc2)S(C)(=O)=O)cc1`: -30%.
The same measure for `N#Cc1ccccc1S(=O)(=O)N1CCN(C(=O)CCC2CCCC2)CC1`: -17.1%; for `Cc1c(C(=O)N2CCN(Cc3ccccc3)CC2)oc2c1C(=O)CC(C)(C)C2`: 8.43%.
Then `COc1cccc(/C=N/NC(=O)CNC(=O)C(c2ccccc2)c2ccccc2)c1O`, with 26.9%.
`O=C(CCC1CCCCC1)N1CCN(Cc2ccc3c(c2)OCO3)CC1`: the “hERG current change (%, negative = inhibition) at 10uM” value was -67.2%.
Consider `CN1C(=O)c2cccc3c(S(=O)(=O)N4CCCC4C(=O)O)ccc1c23` (stereo not shown), for which the “hERG current change (%, negative = inhibition) at 10uM” value amounted to 7.28%.
The same measure for `COc1ccc(-c2nnn(CC(=O)N(CC(=O)NC3CCCC3)c3ccccc3)n2)cc1OC`: -23.9%; for `O=C(CCN1C(=O)/C(=C\c2ccco2)SC1=S)Nc1ccc(C(=O)O)c(O)c1`: 19.6%; for `O=C(COc1cc2oc(=O)c3c(c2cc1Cl)CCCC3)NCC1CCC(C(=O)O)CC1` (stereo not shown): 12.2%.
The same measure for `CCOc1ccc(C(=O)Nc2cc(OC)ccc2OC)cc1`: -20.6%.
As to `CCCc1nn(C)c2c(=O)[nH]c(-c3cc(S(=O)(=O)N(CCO)CCO)ccc3OCC)nc12`, the “hERG current change (%, negative = inhibition) at 10uM” value turned out to be 0.59%.
The same measure for `CCC(=O)NC(=S)Nc1cccc(-c2nc3ncccc3o2)c1`: 30%; for `S=C1SCN(Cc2ccccn2)CN1Cc1ccco1`: 16.2%; for `Cc1cc(C(=O)Nc2ccc(N3CCCCC3)cc2)no1`: 4.25%.
For the compound `Cc1ccn(C(=O)c2ccc(NC(=O)CC(C)C)cc2)n1`, the “hERG current change (%, negative = inhibition) at 10uM” value came out at 17.6%.
The same measure for `COCc1ccc(C(=O)N2CCCC(Nc3ccc(F)c(F)c3)C2)s1` (stereo not shown): 11.9%; for `COc1cc(CC(=O)Nc2ccccc2N2CCOCC2)cc(OC)c1OC`: -11.5%.
Then `Cn1c(=O)c2c(nc(SCCN3CCOCC3)n2Cc2ccccc2Cl)n(C)c1=O`, with -36.8%; and `COC(=O)c1ccc(/C=C/C(=O)c2cccc(OC)c2)cc1`, with -2.07%; and `COc1ccc(N2CCN(Cc3nc4c(c(=O)n(C)c(=O)n4C)n3C(C)C(C)=O)CC2)cc1` (stereo not shown), with -22.4%.
